The record followed here is paper PMC13083723 (Patterns, 2026).

Screen size: about 5,400 compounds; about 190 (3.5%) showed an effect of 50% or more. The list shows a part of the results.

For the assay, the system named is Vero-E6. The experiment in a line: primary screen, phospholipidosis by LipidTOX staining; higher = more effect of the substance. Particulars: 10 µM. The method in brief:
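Single-concentration screen at 10 μM, with DMSO 0.1 v/v % and amiodarone 10 μM as controls. Read-out is LipidTOX Red phospholipid staining, which tolerates aldehyde fixation, in Vero-E6 cells.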
`CC(C(=O)O)c1ccc(C(=O)c2ccccc2)s1` (stereo not drawn): the result_ITMP is -1.57%.

Turning to `C=CC(=O)Nc1cccc(Oc2nc(Nc3ccc(N4CCN(C)CC4)cc3)nc3ccsc23)c1`, the result_ITMP is reported as 37.8%.

Consider `NC(=O)NS(=O)(=O)c1ccc(N)cc1`, for which the result_ITMP is 2.89%.

On to `CC(=O)N(CC(O)CN(C(C)=O)c1c(I)c(C(=O)NCC(O)CO)c(I)c(C(=O)NCC(O)CO)c1I)c1c(I)c(C(=O)NCC(O)CO)c(I)c(C(=O)NCC(O)CO)c1I` (stereo not drawn), for which the result_ITMP is -5.4%.

Regarding `c1ccc(CN(CC2=NCCN2)c2ccccc2)cc1`, the result_ITMP is reported as 16.9%.

Consider `CN(C)Cc1ccc(S(=O)(=O)n2ccc(/C=C/C(=O)NO)c2)cc1`, for which the result_ITMP was found to be 12.1%.

For the compound `CN/C(=N\C#N)NCCSCc1nc[nH]c1C`, the result_ITMP is on record as -2.74%.

As to `O=C1O[C@@H](CO)[C@H](O)[C@@H](O)[C@@H]1O`, the result_ITMP is recorded as -9.63%.

For the compound `COc1cc(/C=C/C(=O)N2CCCCCCC2)cc(OC)c1OC`, the result_ITMP was -10.7%.

On to `Fc1ccc(CN2CCC(Nc3ccc(C(F)(F)F)nn3)CC2)cc1F`, for which the result_ITMP stood at 16.7%.

For `O=C(O)C1=CCCN(CCON=C(c2ccccc2)c2ccccc2)C1`, the result_ITMP is on record as 5.78%.

`c1nc(CC2CCNCC2)c[nH]1`: the result_ITMP amounted to 0.67%.

Consider `N=C(Nc1ccc(I)cc1)NC1C2CC3CC(C2)CC1C3` (stereo not drawn), for which the result_ITMP is given as 0.78%.

With `Cc1cc(OCc2nnc(SC3CCCC3)n2-c2cccnc2)ccc1-c1ccc(S(C)(=O)=O)cc1`, the result_ITMP is reported as 9.92%.

Turning to `CNC(=O)c1ccc(C)c(-n2c(C)cc(OCc3ccc(F)cc3F)c(Br)c2=O)c1`, the result_ITMP is -5.67%.

`CC(=O)NCCc1c[nH]c2ccccc12`: the result_ITMP is on record as -3.74%.

Regarding `C/C=C/C/C=C/CCC(=O)[C@H]1O[C@H]1C(N)=O`, the result_ITMP came to 5.72%.

`CNC(=N)NCCC[C@H](N)C(=O)O`: the result_ITMP is given as -4.2%.

As to `CN1C2CCC1CC(OC(=O)C(CO)c1ccccc1)C2` (stereo not drawn), the result_ITMP is given as -0.43%.

Regarding `COCCOc1ccc(N2CCN(CCn3ncc4c3nc(N)n3nc(-c5ccco5)nc43)CC2)cc1`, the result_ITMP worked out at 0.68%.

`C=CCSCC1Nc2cc(Cl)c(S(N)(=O)=O)cc2S(=O)(=O)N1` (stereo not drawn): the result_ITMP is given as -5.85%.

`COc1cc2nc(N3CCC(N4CCCCC4)CC3)nc(NC3CCCCCC3)c2cc1OC`: the result_ITMP is 18.5%.

Consider `CCCCCCCCCCCC[N+](C)(C)CCOc1ccccc1`, for which the result_ITMP worked out at 7.61%.

For `NC(=O)c1cccc(N)c1`, the result_ITMP is -8.29%.

Regarding `CC(C)NCC(O)c1ccccc1Cl` (stereo not drawn), the result_ITMP worked out at 35.6%.

Turning to `CC(C)(O)c1ccccc1CC[C@@H](SCC1(CC(=O)[O-])CC1)c1cccc(/C=C/c2ccc3ccc(Cl)cc3n2)c1`, the result_ITMP stood at 3.69%.

As for `Cc1ccc(-n2nc(C(C)(C)C)cc2NC(=O)Nc2ccc(OCCN3CCOCC3)c3ccccc23)cc1`, the result_ITMP is reported as -0.6%.

As to `CCCCCCCCCCCCCCCC=O`, the result_ITMP is -3.07%.

As to `NS(=O)(=O)c1ccc(-n2nc(C(F)(F)F)cc2-c2ccc(Cl)cc2)cc1`, the result_ITMP was -1.56%.

With `c1ccc(CNc2ncnc3nc[nH]c23)cc1`, the result_ITMP is -8.79%.

As for `O=C(O)CCc1cc(I)c(Oc2ccc(O)cc2)c(I)c1`, the result_ITMP was -2.71%.

In the case of `CN(C)C/C=C/C(=O)Nc1cc2c(Nc3ccc(F)c(Cl)c3)ncnc2cc1O[C@H]1CCOC1`, the result_ITMP is listed as 108%.

As for `CN1Cc2c(N)cccc2C(c2ccccc2)C1` (stereo not drawn), the result_ITMP was found to be 0.64%.

Regarding `Nc1ccc(C(=O)OCC(O)CO)cc1` (stereo not drawn), the result_ITMP is given as -4.7%.

Turning to `C1=C/COCc2cc(ccc2OCCN2CCCC2)Nc2nccc(n2)-c2cccc(c2)COC/1`, the result_ITMP was determined as 78.8%.

On to `CN1CCC2=C(C1)C(c1ccccc1)c1ccccc12` (stereo not drawn), for which the result_ITMP stood at 6.76%.

As for `O=C1NC(=O)C(=Cc2ccc(-c3ccc(F)cc3)o2)S1` (stereo in doubt), the result_ITMP is -6.32%.

Take `CC(C)c1cc(C(C)C)c(-c2csc(N(CCN(C)C)Cc3cccnc3)n2)c(C(C)C)c1`: the result_ITMP amounted to 9.08%.

As for `CCOC(=O)NNc1ccc(N(CC)CC(C)O)nn1` (stereo not drawn), the result_ITMP was 0.64%.

Consider `C#CCC(Cc1cnc2nc(N)nc(N)c2n1)c1ccc(C(=O)N[C@@H](CCC(=O)O)C(=O)O)cc1` (stereo partly drawn), for which the result_ITMP is recorded as -4.66%.

`O=C(O)c1ccccc1NC(=O)N1CCC(c2ccccc2C(F)(F)F)CC1`: the result_ITMP is reported as -0.92%.

As to `COCCNC(=O)Cn1cnc([N+](=O)[O-])n1`, the result_ITMP is -8%.

In the case of `CC(C)(C)NCC(O)COc1cccc2[nH]c(=O)[nH]c12` (stereo not drawn), the result_ITMP is -1.16%.

With `COc1c(N2CCNC(C)C2)c(F)cc2c(=O)c(C(=O)O)cn(C3CC3)c12` (stereo not drawn), the result_ITMP worked out at 3.33%.

Turning to `O=C(c1ccccc1)c1ccc2n1CCC2C(=O)O` (stereo not drawn), the result_ITMP is -4.44%.

Consider `CCOC(=O)[C@@](C)(N)Cc1ccc(O)c(O)c1`, for which the result_ITMP is -8.9%.

Take `Cc1cccc(-c2nc(C(C)(C)C)[nH]c2-c2ccc3nccnc3c2)n1`: the result_ITMP is -5.96%.

In the case of `CCN(CC)CCCC(C)Nc1nc(C)cc(Nc2ccc3nc(C)cc(N)c3c2)n1` (stereo not drawn), the result_ITMP is listed as 2.84%.

In the case of `OCc1ccccc1O`, the result_ITMP is on record as 0.98%.

In the case of `CNC(=O)[C@H]1O[C@@H](n2cnc3c(NCc4cccc(I)c4)nc(Cl)nc32)[C@H](O)[C@@H]1O`, the result_ITMP is reported as 0.72%.

Turning to `C=C[C@]1(C)CC[C@@H](C(=C)C)C[C@H]1C(=C)C`, the result_ITMP is 18.4%.

As for `O=C(Nc1ccccc1Br)N[C@@H]1CCN(c2ccc(C(F)(F)F)cn2)C1`, the result_ITMP was -3.98%.

With `COC(=O)N1CC[C@@H]2[C@H]1CCC[C@@]2(O)C#Cc1cccc(C)c1`, the result_ITMP amounted to 2.06%.

With `COc1ccc(S(=O)(=O)N(CCO)c2ccccc2CN(C)C/C=C/c2ccc(Cl)cc2)cc1`, the result_ITMP turned out to be 13.6%.

Consider `NS(=O)(=O)c1cccc2c1c([N+](=O)[O-])cc1[nH]c(=O)c(=O)[nH]c12`, for which the result_ITMP is -1.31%.

With `CN(CC[C@@H](Oc1ccc(-c2ccccc2)cc1)c1ccc(F)cc1)CC(=O)O`, the result_ITMP was 0.25%.

With `O=[N+]([O-])NC1=NCCN1Cc1ccc(Cl)nc1`, the result_ITMP is recorded as -8.38%.

`CCCCCCCCCCCCCCCCCC[S+](CCC)c1ccccc1C(=O)OCC` (stereo not drawn): the result_ITMP is 9.69%.

Consider `CN(C)c1ccc2nc3ccc(N(C)C)cc3[s+]c2c1`, for which the result_ITMP came to 5.81%.

As for `CN(C)CC(c1ccc(O)cc1)C1(O)CCCCC1` (stereo not drawn), the result_ITMP is -2.56%.

`NC(=O)CCCCn1ccc(/N=C(\N)NCC(F)(F)F)n1`: the result_ITMP is -0.35%.

For the compound `O=C(NOCC(O)CO)c1cc(Br)c(F)c(F)c1Nc1ccc(I)cc1F` (stereo not drawn), the result_ITMP was 4.38%.

Take `COc1ccc2c3c([nH]c2c1)[C@H](CC(C)C)N1C(=O)[C@H](CCC(=O)OC(C)(C)C)NC(=O)[C@@H]1C3`: the result_ITMP is recorded as -1.42%.
